The structures appear in SMILES notation. The campaign covered roughly 39,000 compounds. About 220 (0.56%) showed activity. The list shows a part of the results.
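Also: static incubation at 37 °C against the wild-type strain, values averaged over two biological replicates.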

The test system of the assay is Escherichia coli K-12 BW25113. Kind of assay: relative growth (OD600 normalised to plate interquartile mean) (fraction); higher = less growth inhibition, active = 0.2 or less. The settings on record: 50 µM; LB; incubation time: overnight (16-24 h).
Consider `C[C@H]1CN([C@@H](C)CO)C(=O)Cc2cc(NS(=O)(=O)c3cn(C)cn3)ccc2O[C@H]1CN(C)S(=O)(=O)c1ccc(F)cc1`, for which the relative growth was inactive: 0.987.
Turning to `CO[C@H]1O[C@H](CO)[C@@H](OC(=O)Nc2cccc(F)c2)[C@H](OC(=O)Nc2ccccc2-c2ccccc2)[C@H]1OC(=O)Nc1ccccc1-c1ccccc1`, the relative growth is inactive: 1.05.
Turning to `CNC[C@@H](O)c1cccc(O)c1`, the relative growth was inactive: 1.02.
The value for `COc1ccc(NC(=O)Nc2ccc3c(c2)CC(=O)N([C@@H](C)CO)C[C@@H](C)[C@@H](CN(C)Cc2ccc(Oc4ccccc4)cc2)O3)cc1` was inactive: 1.
`O=C(O)c1ccc(O)cc1O`: the relative growth is inactive: 0.67.
As for `O=C1NC(=O)[C@H](Cc2ccccc2)N1`, the relative growth was inactive: 0.992.
For `CCc1ccc(Nc2c3c(nc4ccccc24)CCCC3)cc1` the value was inactive: 0.97.
The value for `O=C(CCCCCNC(=O)OC[C@]12N=C3SCc4ccccc4CN3[C@H](c3ccccc3O1)[C@H]2COC(=O)c1ccccc1)NO` was inactive: 0.998.
For `COc1ccc(NC(=O)Nc2ccc3c(c2)C(=O)N([C@@H](C)CO)C[C@H](C)[C@@H](CN(C)S(=O)(=O)c2ccc(F)cc2)OCCCC[C@H](C)O3)cc1` the value was inactive: 0.932; for `Cc1ccc(S(=O)(=O)Nc2cccc3c2O[C@H](CN(C)C(=O)Nc2ccc(C(F)(F)F)cc2)[C@@H](C)CN([C@@H](C)CO)C3=O)cc1`, inactive: 0.975; for `Cc1noc(C)c1NC(=O)N(C)C[C@@H]1Oc2ccc(NC(=O)Nc3ccc(C(F)(F)F)cc3)cc2CC(=O)N([C@H](C)CO)C[C@H]1C`, inactive: 1.
As to `COc1ccc(S(=O)(=O)Nc2ccc3c(c2)CC(=O)N([C@H](C)CO)C[C@@H](C)[C@H](CN(C)Cc2ccc(Oc4ccccc4)cc2)O3)cc1`, the relative growth is inactive: 0.994.
For the molecule `C[C@@H]1CN([C@H](C)CO)C(=O)c2cc(NC(=O)CCC(F)(F)F)ccc2O[C@H]1CN(C)Cc1ccc(C(=O)Nc2ccccc2N)cc1`, the relative growth is inactive: 0.983.
For `COc1ccc(S(=O)(=O)Nc2ccc3c(c2)C(=O)N([C@H](C)CO)C[C@@H](C)[C@H](CN(C)Cc2ccc(Cl)c(Cl)c2)O3)cc1` the value was inactive: 0.963; for `O=C(O)CNC(=O)CNC(=O)Cn1nc(-c2ccccc2)ccc1=O`, inactive: 0.982; for `C[C@@H]1CN([C@H](C)CO)S(=O)(=O)c2ccc(C#CC3CCCC3)cc2O[C@H]1CN(C)Cc1cncnc1`, inactive: 1.03.
The value for `CCCNC(=O)N1C[C@H](O)COC[C@H]2O[C@@H](CC(=O)NCc3ccncn3)CC[C@@H]21` was inactive: 1.01; that for `CO[C@@H]1CN(C)C(=O)c2cc(NC(=O)CC(F)(F)F)ccc2OC[C@H](C)N(C(=O)C2CCOCC2)C[C@H]1C` was inactive: 1.
The value for `COC(=O)[C@H]1[C@H](C(=O)O)[C@@]2(C(=O)Nc3ccc(C#Cc4ccc(OC)cc4)cc32)[C@@H](c2ccccc2)N1C` was inactive: 0.976; that for `COc1ccc(S(=O)(=O)N(C)C[C@H]2Oc3ncc(-c4ccncc4)cc3C(=O)N([C@@H](C)CO)C[C@@H]2C)cc1` was inactive: 1.01; that for `CSc1ccc(Sc2ccc(SC)cc2)cc1` was inactive: 0.923.
Take `O=C(C[C@@H]1C[C@H]2c3cc(NC(=O)Cc4ccncc4)ccc3O[C@H]2[C@@H](CO)O1)NCCN1CCCCC1`: the relative growth was inactive: 0.982.
The value for `C[C@@H]1CN([C@H](C)CO)C(=O)CCCn2nncc2CO[C@H]1CN(C)S(=O)(=O)c1ccc2ccccc2c1` was inactive: 0.995; that for `C[C@H](CO)N1C[C@H](C)[C@@H](CN(C)C(=O)Nc2cccc3ccccc23)OCCCC[C@H](C)Oc2ccc(NS(=O)(=O)c3ccc(F)cc3)cc2C1=O` was inactive: 1.02.
For `CNC[C@H]1Oc2cc(C#CCN(C)C)ccc2S(=O)(=O)N([C@@H](C)CO)C[C@@H]1C` the value was inactive: 1.03.
For `C=c1cc(C)ccc1=C1NN=C(NC(C)=O)O1` the value was inactive: 0.968.
Turning to `COc1ccc(S(=O)(=O)N(C)C[C@H]2OCCCC[C@@H](C)Oc3ccc(NC(=O)C4CCCCC4)cc3C(=O)N([C@H](C)CO)C[C@H]2C)cc1`, the relative growth was inactive: 1.01.
For `C[C@H]1CCCCO[C@@H](CN(C)C(=O)NC2CCCCC2)[C@@H](C)CN([C@@H](C)CO)C(=O)c2cc(NS(=O)(=O)c3ccc(Cl)cc3)ccc2O1` the value was inactive: 1.02; for `C[C@@H]1CCCCO[C@@H](CN(C)CC2CCCCC2)[C@@H](C)CN([C@@H](C)CO)C(=O)c2cc(NC(=O)C3CCCCC3)ccc2O1`, inactive: 0.972.
`COc1ccc(S(=O)(=O)N[C@H]2CC[C@H](CC(=O)N3CCC(Cc4ccccc4)CC3)O[C@@H]2CO)cc1`: the relative growth was inactive: 0.999.
`C[C@H](CO)N1C[C@H](C)[C@H](CN(C)S(=O)(=O)c2ccc(F)cc2)Oc2c(NC(=O)C3CC3)cccc2C1=O`: the relative growth was inactive: 1.01.
Regarding `C[C@H]1CN([C@@H](C)CO)C(=O)c2cc(NC(=O)C3CCCCC3)ccc2O[C@H]1CN(C)C(=O)Nc1ccc(C(F)(F)F)cc1`, the relative growth is inactive: 1.01.
The value for `Cn1c(=O)c2c(NCCc3ccc(S(N)(=O)=O)cc3)ccnc2n(C)c1=O` was inactive: 1.03; that for `C[C@@H]1CCCCO[C@@H](CN(C)Cc2ccc3c(c2)OCO3)[C@H](C)CN([C@@H](C)CO)C(=O)c2cc(NS(=O)(=O)c3ccc(F)cc3)ccc2O1` was inactive: 0.99; that for `O=C(CCCCCNC(=O)OCCCCO[C@H]1C[C@@H](c2ccc(C(F)(F)F)cc2)C=C(C(=O)N2CCN(Cc3ccccc3)CC2)O1)NO` was inactive: 1.
`c1ccc2nc(-c3cn[nH]c3)ccc2c1`: the relative growth is inactive: 0.973.
For `C[C@H](CO)N1C[C@H](C)[C@@H](CN(C)Cc2ccc(Oc3ccccc3)cc2)Oc2c(NC(=O)Nc3cccc4ccccc34)cccc2C1=O`, the relative growth was inactive: 0.915.
For the molecule `CO[C@H]1CN(C)C(=O)c2ccc(NC(=O)C3CCOCC3)cc2OC[C@H](C)N(Cc2cccnc2)C[C@@H]1C`, the relative growth is inactive: 1.01.
For `O=C1CN(S(=O)(=O)Cc2ccccc2)C[C@@H]2[C@H](c3ccc(C#Cc4ccc(F)cc4)cc3)[C@@H](CO)N12` the value was inactive: 1.02; for `C[C@@H]1CCCCO[C@H](CN(C)C(=O)Nc2ccc(F)cc2)[C@@H](C)CN([C@H](C)CO)C(=O)c2cc(NS(=O)(=O)c3ccc(F)cc3)ccc2O1`, inactive: 1.02.

For the origin of these results see the supplement of paper PMC9446081.
